Measured values: PubChem BioAssay AID445 (National Center for Advancing Translational Sciences (NCATS), 2006)
Hit rate of the full screen: of about 110,000 compounds, about 40 (0.04%) were called active. Inconclusive results, whose numbers are uncertain, are shown with a selection of clear calls. Calls follow the shape of the dose curve; as a rule, active = well fitted curve in the direction sought with a large enough effect in the signal ratio (not every such curve was filed as active); inconclusive = small, poorly fitted or top-dose-only effect, or a change in a side signal; inactive = flat fitted curve, though single readings scatter; the % refers to the signal ratio. A potency beside an inconclusive call is a rough fit, not a confirmed value.

Assay: IkB Signaling;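 as to IkBa stabilization activation: 0% = basal untreated cells and 100% = reference inhibitor full response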
Conditions: ABC-DLBCL IkBa-CBG/CBR dual luciferase ratio (green luciferase fused to IkBa over red control in OCI-Ly3 lymphoma cells), 4 h; IkBa stabilization activation: at 57.1 µM (top of the series), scaled: untreated 0%, proteasome inhibitor 100% unless noted
In short: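 In this assay, an IκBα–CBG68 fusion accumulates when IKK-driven degradation is blocked; native CBR normalizes for cell number. OCI-Ly3 cells were treated 4 h with compound and doxycycline, then green and red light read after Chroma-Glo addition.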
Potency is read from the fitted curve at half-maximal effect.

Q: Which IkBa stabilization activation does the source give for `CCCOc1ccc(Oc2nc(NC)nc(N3CCOCC3)n2)nn1` here?
A: inconclusive: 4.17% [signal inhibitor]

Q: With `COc1cccc(Nc2ncc3nc(C)c(=O)n(CCC#N)c3n2)c1` as the compound, how does the IkBa stabilization activation read?
A: inactive: -7.1% [at 11.4 µM, scaled: untreated 0%, proteasome inhibitor 100%]

Q: Which IkBa stabilization activation does the source give for `CCCCc1ccc(NC(=O)CSc2nc3ccccc3nc2N2CCCCC2)cc1` here?
A: inconclusive: -1.42% [signal inhibitor]

Q: Which IkBa stabilization activation does the source give for `O=C(CSc1nc2ccccc2c(=O)n1CC1CCCO1)N1CCN(c2ccccc2)CC1` (configuration not stated) here?
A: inconclusive: 1.79% [signal inhibitor]

Q: For `CCOc1ccc(NC(=O)C(CC)n2nc(C)c3c(C)n(-c4ccccc4)nc3c2=O)cc1` (configuration not stated), which IkBa stabilization activation is on record?
A: inconclusive: -1.1% [signal inhibitor]

Q: For `Cn1c(=O)oc2cc(S(=O)(=O)NCC3CCCO3)ccc21` (configuration not stated), which Potency is on record?
A: inconclusive: 3.98 µM [signal inhibitor, full curve]

Q: With `Cc1ccc(NC(=O)CN2C(=O)CC(c3ccco3)Sc3ccccc32)cc1Cl` (configuration not stated) as the compound, how does the IkBa stabilization activation read?
A: inconclusive: 3.99% [signal inhibitor]

Q: For `COc1ccc(NC(=O)c2oc3ccccc3c2NC(=O)c2cc3ccccc3o2)c(OC)c1`, which IkBa stabilization activation is on record?
A: inactive

Q: For `CCOC(=O)C1CCN(C(c2cc3ccc(C)cc3[nH]c2=O)c2nnnn2C2CCCCC2)CC1` (configuration not stated), which IkBa stabilization activation is on record?
A: inconclusive: 10.4% [signal inhibitor]

Q: Which IkBa stabilization activation does the source give for `C=CCn1c(SCC(=O)c2cc(C)n(C(C)COC)c2C)nc2sc(C)c(C)c2c1=O` (configuration not stated) here?
A: inconclusive: 2.4% [signal inhibitor]

Q: With `Cc1cccc(CNc2nc(-c3ccc(C(=O)N(C)C)cc3)nc3ccccc23)c1` as the compound, how does the IkBa stabilization activation read?
A: inactive: 0.649% [at 11.4 µM, scaled: untreated 0%, proteasome inhibitor 100%]

Q: With `CCn1c(N2CCN(CC(=O)c3c(C)n(C)c4ccccc34)CC2)nc2c1c(=O)[nH]c(=O)n2C` as the compound, how does the IkBa stabilization activation read?
A: inactive

Q: With `COc1cccc(CN2C(=O)C3(SCC(=O)N3c3ccc(C)c(Cl)c3)c3ccccc32)c1` (configuration not stated) as the compound, how does the IkBa stabilization activation read?
A: inconclusive: -0.292% [signal inhibitor]

Q: With `CC(=O)c1c(C)[nH]c(C(=O)OCc2nnc(-c3ccccc3)o2)c1C` as the compound, how does the IkBa stabilization activation read?
A: inconclusive: 8.62% [signal inhibitor]

Q: With `CC[C@@]1(O)C(=O)OCc2c1cc1n(c2=O)Cc2cc3c(CN(C)C)c(O)ccc3nc2-1` as the compound, how does the IkBa stabilization activation read?
A: inconclusive: -3.31% [signal inhibitor] [at 11.4 µM, scaled: untreated 0%, proteasome inhibitor 100%]

Q: With `COc1ccc2c(c1OC)C(=O)N(c1cccc(C)c1)C2=O` as the compound, how does the IkBa stabilization activation read?
A: inactive

Q: Which IkBa stabilization activation does the source give for `CCCCC(=O)N1CCc2cc(OC)c(OC)cc2C1COc1ccc(C(=O)OCC)cc1` (configuration not stated) here?
A: inconclusive: 0.377% [signal inhibitor]

Q: For `COCCCn1c(=N)c(C(=O)NC2CCCC2)cc2c(=O)n3cccc(C)c3nc21`, which IkBa stabilization activation is on record?
A: inactive

Q: With `COc1ccc(N=Cc2c(O)[nH]c3ccccc23)cc1OC` as the compound, how does the IkBa stabilization activation read?
A: inconclusive: 6.14% [signal inhibitor]

Q: For `COc1ccc(-c2nc3n(n2)C(c2ccccc2OC)C(C(=O)Nc2cccnc2)=C(C)N3)cc1` (configuration not stated), which IkBa stabilization activation is on record?
A: inconclusive: 5.03% [signal inhibitor]

Q: With `CCOc1ccccc1NC(=O)c1c2c(nc3ccccc13)C(=O)N(C1CCCCC1)C2` as the compound, how does the IkBa stabilization activation read?
A: inconclusive: 6.91% [signal inhibitor]

Q: Which IkBa stabilization activation does the source give for `O=C(C1CCC(CNS(=O)(=O)c2ccc(Br)s2)CC1)N1CCN(c2ccc(F)cc2)CC1` (configuration not stated) here?
A: inconclusive: 7.63% [signal inhibitor]

Q: With `O=C(Nc1cccc(Cl)c1)N1CC2CCCN2c2ccccc21` (configuration not stated) as the compound, how does the IkBa stabilization activation read?
A: inactive

Q: For `CCN(C(C)=O)c1nnc(CSc2nc3ccccc3s2)s1`, which IkBa stabilization activation is on record?
A: inactive

Q: For `COc1ccc(CNC(=O)c2ccc3c(c2)nc2n3CCCCC2)cc1`, which IkBa stabilization activation is on record?
A: inconclusive: 2.5% [signal inhibitor]

Q: With `Cc1ccc(NS(=O)(=O)c2ccc3c(c2)N(C)C(=O)CC(=O)N3C)cc1Cl` as the compound, how does the IkBa stabilization activation read?
A: inconclusive: 1.25% [signal inhibitor]

Q: Which IkBa stabilization activation does the source give for `CCCOc1c(OC)cccc1C1CC(=O)Nc2cc3c(cc21)OCCO3` (configuration not stated) here?
A: inconclusive: 7.45% [signal inhibitor]

Q: Which IkBa stabilization activation does the source give for `CCC1CN(C(=O)N2CCC(C(=O)N3CCN(c4ccccc4)CC3)CC2)c2ccccc2O1` (configuration not stated) here?
A: inactive

Q: For `CCC1CCCCN1C(=O)Cn1c(=O)oc2ccccc21` (configuration not stated), which IkBa stabilization activation is on record?
A: inactive

Q: Which IkBa stabilization activation does the source give for `COc1ccccc1C1C(C(=O)c2cc3ccccc3o2)=C(O)C(=O)N1CCN(C)C` (configuration not stated) here?
A: inconclusive: 15.8% [signal inhibitor]

Q: With `N#C/C(=C\c1ccc(OCc2ccc(Cl)cc2Cl)cc1)c1nc2ccccc2[nH]1` as the compound, how does the IkBa stabilization activation read?
A: inconclusive: 16.6% [signal inhibitor]

Q: With `Cc1cccc(C2=Nc3ccccc3N=C(c3cc(Cl)ccc3O)C2)c1` as the compound, how does the IkBa stabilization activation read?
A: inactive

Q: With `C=CCn1c(SCC(=O)Nc2cccc(C(=O)OC)c2)nnc1C(C)NC(=O)c1cccs1` (configuration not stated) as the compound, how does the IkBa stabilization activation read?
A: inconclusive: 4.18% [signal inhibitor]

Q: For `O=C(Nc1cccc(Br)c1)N1CCN2CCCCC2C1` (configuration not stated), which IkBa stabilization activation is on record?
A: inconclusive: 3.35% [signal inhibitor]

Q: For `Cc1cccc(NC(=O)/C(C#N)=C/c2ccco2)c1`, which IkBa stabilization activation is on record?
A: inactive

Q: Which IkBa stabilization activation does the source give for `COc1ccc(OC)c(CNC(=O)c2cc3c(Cl)nc4ccccc4c3s2)c1` here?
A: inconclusive: 2.18% [signal inhibitor]

Q: With `Cn1c(C(=O)N2CCN(C(=O)c3ccco3)CC2)cc2c(=O)n(C)c3ccccc3c21` as the compound, how does the IkBa stabilization activation read?
A: inactive

Q: Which IkBa stabilization activation does the source give for `C=CCc1c(C)nc(SCc2nc3ccccc3c(=O)[nH]2)[nH]c1=O` here?
A: inconclusive: 11.5% [signal inhibitor]

Q: With `COc1cccc(-c2cc3nc4c(c(N5CCC6(CC5)OCCO6)n3n2)CCCC4)c1` as the compound, how does the Potency read?
A: inconclusive: 7.94 µM [signal inhibitor, full curve]

Q: Which IkBa stabilization activation does the source give for `O=C(NCc1ccco1)c1ccc2c(c1)N(Cc1ccccc1)C(=O)c1ccccc1S2` here?
A: inconclusive: -1.29% [signal inhibitor]

Q: With `CCC1CCCCN1C(=O)c1c[nH]c2ccc(S(=O)(=O)Nc3cccc(OC)c3)cc2c1=O` (configuration not stated) as the compound, how does the IkBa stabilization activation read?
A: inconclusive: 4.29% [signal inhibitor]

Q: With `Cc1cc(C)c(S(=O)(=O)NCCc2sc3nc(-c4ccc(F)cc4)nn3c2C)c(C)c1` as the compound, how does the IkBa stabilization activation read?
A: inconclusive: 9.51% [signal inhibitor]

Q: For `CCOc1ccc(NC(=O)CCc2c(C)nc3cc(-c4ccccc4OC)nn3c2C)cc1`, which IkBa stabilization activation is on record?
A: inconclusive: 18.5% [signal inhibitor]

Q: For `COC(=O)c1ccc(CSc2c(C(C)C)cnc3c2c(=O)n(C)c(=O)n3C)cc1`, which IkBa stabilization activation is on record?
A: inconclusive: -0.294% [signal inhibitor]

Q: Which IkBa stabilization activation does the source give for `Cc1ccc(N(C)S(=O)(=O)c2ccc3[nH]c(=O)ccc3c2)cc1` here?
A: inconclusive: 0.243% [signal inhibitor]

Q: Which IkBa stabilization activation does the source give for `CSc1nc(N)c(C#N)c(-c2ccc(Cl)cc2)c1C#N` here?
A: inconclusive: -1.86% [signal inhibitor]

Q: Which IkBa stabilization activation does the source give for `Cc1ccc(NC(=O)c2sc3ncnc(N(C)C4CCCCC4)c3c2C)c(C)c1` here?
A: inconclusive: 0.121% [signal inhibitor]

Q: Which IkBa stabilization activation does the source give for `O=C(CC1N=C2c3ccccc3N=C(SCc3cccc(Cl)c3)N2C1=O)NC1CCCCC1` (configuration not stated) here?
A: inconclusive: -1.71% [signal inhibitor]

Q: For `COc1ccc(NC(=O)CSc2nnc(-c3nnn(-c4ccc(F)cc4)c3C)o2)cc1`, which IkBa stabilization activation is on record?
A: inconclusive: 0.359% [signal inhibitor]

Q: Which IkBa stabilization activation does the source give for `N#CC1=C(N)Oc2n[nH]c(-c3ccncc3)c2C1c1ccsc1` (configuration not stated) here?
A: inactive

Q: For `Cn1c(=NC(=O)c2ccc(F)cc2)sc2cc(Br)ccc21`, which IkBa stabilization activation is on record?
A: inconclusive: 3.41% [signal inhibitor]

Q: With `Cc1ccc(Cl)cc1-n1c(=O)cc(N2CCN(c3ccccc3)CC2)[nH]c1=O` as the compound, how does the IkBa stabilization activation read?
A: inconclusive: 0.0513% [signal inhibitor]

Q: Which IkBa stabilization activation does the source give for `Cc1cc2n(n1)CCCN2C(=O)Nc1ccccc1F` here?
A: inactive

Q: For `COc1cccc(C(=O)N2CCC(c3nc4ccccc4s3)CC2)c1`, which IkBa stabilization activation is on record?
A: inconclusive: 0.768% [signal inhibitor]

Q: With `COCCNc1cc(N2CCN(C3CCCCC3)CC2)c2noc3c2c1C(=O)c1ccccc1-3` as the compound, how does the IkBa stabilization activation read?
A: inconclusive: -0.861% [signal inhibitor]

Q: For `CCOc1ccccc1NC(=O)c1ccc2c(c1)CCCN2S(C)(=O)=O`, which IkBa stabilization activation is on record?
A: inconclusive: 0.61% [signal inhibitor]

Q: Which IkBa stabilization activation does the source give for `O=C(Nc1cccc(F)c1)N1CC2(CCN(C(=O)c3ccco3)CC2)C1` here?
A: inactive: 0.491% [at 11.4 µM, scaled: untreated 0%, proteasome inhibitor 100%]

Q: With `Cc1ccc(C(=O)Nc2nnc(SCc3cc(=O)c4c(C)ccc(C)c4[nH]3)s2)cc1` as the compound, how does the IkBa stabilization activation read?
A: inconclusive: -0.0193% [signal inhibitor]

Q: With `O=C(C1COc2ccccc2O1)N(Cc1cccnc1)c1nc2c(F)cc(F)cc2s1` (configuration not stated) as the compound, how does the IkBa stabilization activation read?
A: inconclusive: 4.9% [signal inhibitor]

Q: With `O=C(Nc1ccc2nn(-c3ccc(F)cc3)nc2c1)c1cccc2c(Cl)cccc12` as the compound, how does the IkBa stabilization activation read?
A: inactive

Q: For `Cc1ccc(Cl)cc1N1CCN(C(=O)c2c(C)oc3ncnc(N4CCOCC4)c23)CC1`, which IkBa stabilization activation is on record?
A: inconclusive: 0.616% [signal inhibitor]

Q: For `COC(=O)c1cccc(Nc2c(-c3cc(Br)ccc3O)nc3nc[nH]n23)c1`, which IkBa stabilization activation is on record?
A: inconclusive: 8.83% [signal inhibitor]

Q: For `CCOc1ccccc1NC(=O)c1c(NCc2ccc(OC)c(OC)c2OC)sc2c1CCC(C)C2` (configuration not stated), which IkBa stabilization activation is on record?
A: inconclusive: 3.85% [signal inhibitor]

Q: For `c1ccc(-c2cc(-c3nc(-c4cccnc4)no3)c3ccccc3n2)cc1`, which IkBa stabilization activation is on record?
A: inactive

Q: With `O=C(Nc1nccs1)c1ccc(COc2ccccc2Br)o1` as the compound, how does the IkBa stabilization activation read?
A: inconclusive: 1.24% [signal inhibitor]

Q: For `Cc1ccc(Cl)cc1NC(=O)c1cccc(NC(=O)N2CCSc3ncccc32)c1`, which IkBa stabilization activation is on record?
A: inconclusive: 0.887% [signal inhibitor]

Q: Which IkBa stabilization activation does the source give for `COCCN1C(=O)c2[nH]nc(-c3c(C)cc(C)cc3O)c2C1c1cccc(O)c1` (configuration not stated) here?
A: inconclusive: 1.24% [signal inhibitor]
